According to PubChem BioAssay AID1508624 (National Center for Advancing Translational Sciences (NCATS), 2021):
In all, about 48,000 compounds went through this assay and about 120 (0.25%) were called active. Roughly 4% stayed inconclusive and do not appear here. The call rests on the fitted dose curve; in most records, active means well fitted activation curve with a large enough effect; inconclusive means small, poorly fitted or top-dose-only effect, or another doubt; inactive means no such curve, though single readings can be large or run the other way. Some of the results follow.

Test: Primary qHTS for Identification of Small Molecule Activators of Huntingtin-Antisense Promoter Activity; further: nearly all actives have a fitted effect of over 55% in size
Settings: HEK293 HTT-AS promoter firefly luciferase reporter, 24 h; series mostly up to 57.5 µM; activity change, positive = activation: at the top concentration
Summary of the method: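 HEK293 cells carrying firefly luciferase reporters were seeded at 2,500 per well in Opti-MEM and cultured for 24 h. They were then treated with compounds at up to 57.5 uM final for 24 h at 37 degrees C before Dual-Glo luminescence readout.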

Activity change, positive = activation, inactive:
Cc1c(CCNC(=O)c2ccco2)sc2nc(-c3ccc(F)cc3)nn12 -10.9%, CCN(Cc1nc(-c2ccc(OC)cc2)oc1C)S(=O)(=O)c1ccc(C)cc1 -28.2%, CCOC(=O)Cc1ccc(NC(=O)N2CCC(CN3CCCCCC3)CC2)cc1 -5.31%, CCOc1ccccc1Nc1nnc(-c2cc3cc(OC)ccc3oc2=O)s1 4.83%, CCN(CC)c1cc2c(cc1F)c(=O)c(S(=O)(=O)c1ccc(OC)cc1)cn2Cc1ccccc1 -29.5%, CC(=O)c1ccc(NC(=O)Cn2c(-n3nc(C)cc3C)nc(C)c(C)c2=O)cc1 -11.9%, CCc1ccc(Oc2c(C(F)(F)F)oc3c(CN4CCC(C)CC4)c(O)ccc3c2=O)cc1 -8.69%, Oc1ccc([C@@H]2Oc3ccc(O)cc3[C@@H]3CCC[C@@H]32)cc1 -75.1%, Cc1cccc(NC(=O)C2CCN(c3nc4ccccc4[nH]3)CC2)c1C -11.6%, O=C(Nc1ccc2nc(SCC(=O)N3CCCC3)sc2c1)c1cccc(Br)c1 -25.9%, Cc1ccc(C)c(CNC(=O)CCn2cccn2)c1 -1.89%, Cc1cc(C)cc(N2C(=O)CSC23C(=O)N(CC(=O)Nc2ccc(F)cc2F)c2ccccc23)c1 (configuration not stated) -17.4%, CCOCCCN1C(=O)c2[nH]nc(-c3ccccc3O)c2C1c1ccc(CC)cc1 (configuration not stated) -34.7%, CCCCc1nn2c(=O)cc(COC(=O)c3ccc(NC(=O)CCc4ccccc4)cc3)nc2s1 6%, CCOC(=O)c1oc2c(c1C)-c1nn(Cc3c(F)cccc3Cl)cc1CC2 -20.7%, Cc1nc2ccc(S(=O)(=O)N(CC(=O)Nc3cccc(F)c3)Cc3ccccc3)cc2s1 -21.8%, O=C1CC(c2ccccc2)c2c(n3ncnc3[nH]c2=O)N1 (configuration not stated) -6.16%, CC(C)CCn1c(=O)c2sccc2n2c(CCCC(=O)NCCc3ccccc3)nnc12 -1.39%, COc1ccccc1C(=O)N1CCC(c2noc(-c3ccc(S(=O)(=O)N4CCCC4)cc3)n2)CC1 -41.4%, COc1cccc(CNC(=O)c2oc3c(c2C)-c2nn(Cc4cccc(Cl)c4)cc2CC3)c1OC -33.2%, OC[C@H]1O[C@@H](OCCc2ccc(O)cc2)[C@H](O)[C@@H](O)[C@H]1O -20.8%, O=C(NCCc1ccc(Cl)cc1)c1ccc(CS(=O)Cc2ccccc2Cl)o1 (configuration not stated) -30.6%, C[C@@H](O)[C@H](N)C(=O)O -5.01% [at 25.1 µM, percent change from vehicle, -100% = no light], COc1ccc(NC(=O)Cn2c(SCc3ccc(F)cc3)nc3cccnc32)cc1OC -1.57%, CC(C)N(C)C1CCN(S(=O)(=O)c2ccc3[nH]c(=O)ccc3c2)CC1 -5.64%, O=C(Nc1nc2ccccc2s1)c1ccc(S(=O)(=O)N2CCCC2)cc1 12.2%, O=S(=O)(c1ccc2nc(NCc3ccccc3Cl)ccc2c1)N1CCCCC1 -23.4%, COc1ccc(CNC(=O)CSc2nc(-c3ccc(OC)c(OC)c3)cc(C(F)(F)F)n2)cc1 -29.3%, CC(CNC(=O)c1ccc(CSc2nc3ccncc3n2Cc2ccccc2)cc1)c1ccccc1 (configuration not stated) -24.9%, COc1cc(Cl)c(NS(=O)(=O)c2ccc(-c3cnc(C4CC4)o3)cc2)c(OC)c1 -36.5%, CCCCN(C)S(=O)(=O)c1ccc(C(=O)Nc2sc3c(c2C(N)=O)CC(C)(C)NC3(C)C)cc1 -10.5%, CCCc1ccc(-c2ccc(C(=O)Oc3ccc(OCC)cc3)cc2)nc1 4.69%, Cc1ccc(CCNC(=O)CS(=O)Cc2nc(-c3ccccc3C)oc2C)cc1 (configuration not stated) -17%, CCN(Cc1ccccc1)C(=O)Cn1c(=O)n(-c2ccc(Cl)cc2)c(=O)c2c(C)c(C(=O)N(C)C)sc21 0.82%, O=C(Cn1cnc2c(oc3ccccc32)c1=O)Nc1ccc(F)cc1F -6.95%, O=C(CSc1nc2c(oc3ccccc32)c(=O)n1Cc1ccco1)Nc1ccccc1Cl -11.6%, O=C(Cn1ncc2c3ccccc3n(Cc3cccc(Cl)c3)c2c1=O)NCc1cccs1 -7.09%, CCCc1ncc(C(=O)O)s1 2.28%, CCc1ccc(OCc2nc(-c3ccc(OC)cc3)no2)c(Br)c1 -14.5%, Cc1cccc(CCNC(=O)CCc2c(C)nc3c4c(C)cc(C)nc4nn3c2C)c1 -15.7%, COc1ccc(CNC(=O)Cn2ncc3c([nH]c4ccccc43)c2=O)cc1 -8.3%, CCc1cccc(C)c1NC(=O)Cn1c(=O)cc(C)c2c(C)nn(-c3cccc(F)c3)c21 -16.9%, COc1ccccc1N1CCN(c2cc(C)nc3nc(-c4ccc(C)cc4)nn23)CC1 -2.99%, O=C(NCc1ccc(F)cc1)c1ccc(Nc2nc3ccccc3n3nnnc23)cc1 1.08%, Cc1c(C(=O)Nc2ccccc2F)sc2ncnc(N(C)C3CCCCC3)c12 -18.8%, CCCC12CN3CC(CCC)(CN(C1)C3c1ccccc1)C2=O (configuration not stated) -5.96%, CCOC(=O)c1cc(S(=O)(=O)N2CCN(c3ccc(C(C)=O)cc3)CC2)[nH]n1 -17.4%, CCOC(=O)c1ccc(NC(=O)NCCOCCn2c(=O)oc3ccccc32)cc1 -30.9%, CCS(=O)(=O)c1nc(S(=O)(=O)c2ccc(C)cc2)c(NCCCOC)s1 -6.63%, Cc1cc2oc3c(c(=O)c2cc1C)C1(C(=O)N(C)c2ccccc21)N(CCO)C3=O (configuration not stated) -8.41%, CCn1c(CNC(=O)c2ccc(OC)cc2)nnc1SCC(=O)Nc1ccc(C)cc1 -13.1%, Nc1cc(=O)nc(SCC(=O)Nc2ccc(F)cc2)n1CCc1ccccc1 6.99% [at 11.5 µM, percent change from vehicle, -100% = no light], COc1ccc(N2CC(NC(=O)c3ccco3)CC2=O)cc1 (configuration not stated) -18.4%, O=C(Nc1ccccc1Br)C(Cc1ccccc1)NS(=O)(=O)c1cccc2nsnc12 (configuration not stated) -12%, COc1ccccc1NC(=O)C1CCN(C(=O)c2sc3nc[nH]c(=O)c3c2C)CC1 -13.3%, CC(=O)Nc1cccc(NC(=O)CN2C(=O)CCSc3ccccc32)c1 -20.3%, O=C(Nc1ccc2oc(-c3ccc(O)c(Br)c3)nc2c1)c1cc2ccccc2o1 18%, Cc1nc2nc(NC(=O)c3ccccc3F)[nH]n2c(=O)c1Cl -2.87%, Cc1cccc(N2CCN(C(=O)c3cccn4c(=O)c5cc(Cl)ccc5nc34)CC2C)c1 (configuration not stated) -26.8%, CC(C)(CO)[C@@H](O)C(=O)NCCCO -1.96%, O=C(CSc1nnc(-c2cccc(Cl)c2)o1)N1CCc2ccccc21 -5.65%, COc1ccc(C2C=C(c3cccc(OC)c3)Nc3c(C(=O)Nc4ccccc4)cnn32)cc1 (configuration not stated) -28%
